{"source": "paper PMC4336329", "about": "(PLoS ONE, 2015)", "note": "Out of some 310,000 compounds screened, about 14,000 (4.5%) showed an effect of 50% or more. The effect is printed as a negative number. Some of the results follow.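 Further: peak tail current of the secondary pulse compared with the same well before compound.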"}
{"target": "human ether-à-go-go-related gene (hERG) potassium channel (human, UniProt Q12809)", "sequence (Q12809 whole entry, looked up)": "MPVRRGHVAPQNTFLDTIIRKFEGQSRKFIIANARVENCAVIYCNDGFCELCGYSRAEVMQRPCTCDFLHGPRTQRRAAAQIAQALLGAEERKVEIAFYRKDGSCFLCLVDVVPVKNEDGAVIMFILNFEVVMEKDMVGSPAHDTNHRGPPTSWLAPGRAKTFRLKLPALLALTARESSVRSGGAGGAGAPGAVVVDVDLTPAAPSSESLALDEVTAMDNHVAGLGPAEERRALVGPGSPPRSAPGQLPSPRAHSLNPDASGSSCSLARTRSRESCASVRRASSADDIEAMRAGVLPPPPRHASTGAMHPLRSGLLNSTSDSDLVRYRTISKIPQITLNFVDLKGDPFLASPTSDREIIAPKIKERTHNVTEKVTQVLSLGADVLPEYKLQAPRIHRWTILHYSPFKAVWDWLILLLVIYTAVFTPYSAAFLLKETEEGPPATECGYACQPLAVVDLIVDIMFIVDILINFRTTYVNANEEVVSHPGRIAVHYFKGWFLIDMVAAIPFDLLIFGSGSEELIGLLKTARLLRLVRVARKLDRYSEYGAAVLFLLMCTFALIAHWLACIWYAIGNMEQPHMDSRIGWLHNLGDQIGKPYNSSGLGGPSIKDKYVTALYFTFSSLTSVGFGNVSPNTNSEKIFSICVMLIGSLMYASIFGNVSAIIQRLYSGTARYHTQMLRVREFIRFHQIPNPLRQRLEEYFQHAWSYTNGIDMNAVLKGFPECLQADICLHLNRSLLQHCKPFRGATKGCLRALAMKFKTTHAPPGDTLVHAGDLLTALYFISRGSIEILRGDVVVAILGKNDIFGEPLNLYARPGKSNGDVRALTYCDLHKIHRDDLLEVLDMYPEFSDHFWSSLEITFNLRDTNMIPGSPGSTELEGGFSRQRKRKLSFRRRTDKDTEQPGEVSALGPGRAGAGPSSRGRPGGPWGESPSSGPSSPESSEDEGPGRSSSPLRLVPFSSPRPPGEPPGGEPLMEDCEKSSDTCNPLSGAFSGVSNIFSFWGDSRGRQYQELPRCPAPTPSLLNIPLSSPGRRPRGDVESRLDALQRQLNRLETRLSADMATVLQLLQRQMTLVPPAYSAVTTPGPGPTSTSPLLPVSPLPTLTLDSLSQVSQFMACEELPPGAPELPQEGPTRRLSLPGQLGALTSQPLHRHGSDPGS", "assay": "primary screen, population patch clamp on CHO cells stably expressing hERG", "units": {"hERG current change (%, negative = inhibition) at 10uM": "%"}}
{"smiles": "CC(C)=CCN1CCC(n2nccc2NC(=O)c2ccccc2Cl)CC1", "hERG current change (%, negative = inhibition) at 10uM": -57.9}
{"smiles": "COc1ccc(CCNS(=O)(=O)c2ccc(-n3cnnn3)c(OC)c2)cc1OC", "hERG current change (%, negative = inhibition) at 10uM": 8.35}
{"smiles": "NS(=O)(=O)c1cccc(NC(=O)CN2CCN(Cc3ccc4c(c3)OCO4)CC2)c1", "hERG current change (%, negative = inhibition) at 10uM": -39.1}
{"smiles": "Cc1cc(C(=O)NCCCC(=O)O)c(C)o1", "hERG current change (%, negative = inhibition) at 10uM": 0.197}
{"smiles": "CC(C)CC(C(=O)O)N1C(=O)C2C3C=CC(C2C1=O)C1C(=O)N(C(CC(C)C)C(=O)O)C(=O)C31", "note": "(centres unmarked)", "hERG current change (%, negative = inhibition) at 10uM": 17.8}
{"smiles": "Cc1noc(C)c1CSCC(=O)N(C)CC(=O)Nc1cccc(F)c1", "hERG current change (%, negative = inhibition) at 10uM": -33.1}
{"smiles": "CC1CCN(S(=O)(=O)c2ccc(NC(=O)c3ccccc3F)cc2)CC1", "hERG current change (%, negative = inhibition) at 10uM": -1.47}
{"smiles": "C/C(Cc1ccccc1)=N\\NC(=O)CNC(=O)COc1cccc(C)c1", "hERG current change (%, negative = inhibition) at 10uM": -2.8}
{"smiles": "C=CCn1nnnc1-c1cc(Cl)cc(Cl)c1", "hERG current change (%, negative = inhibition) at 10uM": 5.14}
{"smiles": "CC(OC(=O)c1cc[n+]([O-])cc1)C(=O)Nc1ccc(C(N)=O)cc1", "note": "(centres unmarked)", "hERG current change (%, negative = inhibition) at 10uM": 16}
{"smiles": "CCN(C(=O)C1CCCN(c2nc(-c3ccc(OC)cc3)no2)C1)c1ccccc1F", "note": "(centres unmarked)", "hERG current change (%, negative = inhibition) at 10uM": -3.28}
{"smiles": "Cc1ccc(C(=O)Nc2cccc(C(=O)N3CCOCC3)c2)cc1Cl", "hERG current change (%, negative = inhibition) at 10uM": -0.452}
{"smiles": "O=C(N[C@@H](Cc1ccccc1)C(=O)OCC(=O)N1CCOCC1)c1cccs1", "hERG current change (%, negative = inhibition) at 10uM": -9.98}
{"smiles": "CC(=O)NC1=NN(C(C)=O)C(C)(CCS(=O)(=O)c2ccc(Br)cc2)S1", "note": "(centres unmarked)", "hERG current change (%, negative = inhibition) at 10uM": 0.96}
{"smiles": "N#Cc1c(SCc2c(Cl)cccc2Cl)nc(N)[nH]c1=S", "hERG current change (%, negative = inhibition) at 10uM": 19.6}
{"smiles": "Cc1cccc(NC(=O)CSc2nc3nc(C)cc(C)n3n2)c1", "hERG current change (%, negative = inhibition) at 10uM": -32.6}
{"smiles": "Cc1nsc(Nc2ccc([N+](=O)[O-])cc2)c1C#N", "hERG current change (%, negative = inhibition) at 10uM": 14.8}
{"smiles": "CCc1nnc(NC(=O)CSc2ccc(-c3ccc(C)cc3)nn2)s1", "hERG current change (%, negative = inhibition) at 10uM": 9.49}
{"smiles": "O=C1C2C(C(=O)N1CCN1CCN(Cc3ccc([N+](=O)[O-])cc3)CC1)[C@H]1C=C[C@@H]2C1", "note": "(some centres unmarked)", "hERG current change (%, negative = inhibition) at 10uM": -28.6}
{"smiles": "CN1CCN(CC2(O)CCN(S(=O)(=O)c3ccc(Cl)cc3)CC2)CC1", "hERG current change (%, negative = inhibition) at 10uM": -36}
{"smiles": "S=c1[nH]nc(-c2n[nH]c3c2CCC3)n1/N=C/C=C/c1ccco1", "hERG current change (%, negative = inhibition) at 10uM": 6.62}
{"smiles": "Cc1cc(C)c2nc(NNC(=O)c3ccc(S(=O)(=O)N4CCc5ccccc5C4)cc3)sc2c1", "hERG current change (%, negative = inhibition) at 10uM": 8.25}
{"smiles": "Cc1ccc(C(=O)C[n+]2ccc3ccccc3c2)cc1.[Br-]", "hERG current change (%, negative = inhibition) at 10uM": -33.6}
{"smiles": "CCC(=O)N=C1SC2CS(=O)(=O)CC2N1c1cccc(OC)c1", "note": "(centres unmarked)", "hERG current change (%, negative = inhibition) at 10uM": -3.11}
{"smiles": "Cc1cc(C)nc(SCC(=O)OCC(=O)Nc2nc3ccccc3s2)n1", "hERG current change (%, negative = inhibition) at 10uM": 16.9}
{"smiles": "COc1cc(CN2CCC(C(N)=O)CC2)ccc1OCc1ccccc1.O=C(O)C(=O)O", "hERG current change (%, negative = inhibition) at 10uM": -39.9}
{"smiles": "CC(=O)OCCn1c(=O)c2cc3c(=O)n(CCOC(C)=O)c(=O)c3cc2c1=O", "hERG current change (%, negative = inhibition) at 10uM": -4.39}
{"smiles": "O=C(NCC(c1ccc(F)cc1)N1CCOCC1)c1nn(-c2ccccc2)c(=O)c2ccccc12", "note": "(centres unmarked)", "hERG current change (%, negative = inhibition) at 10uM": -8.35}
{"smiles": "CCOC(=O)N1CCN(C(=O)C(C)(C)Oc2ccc(Cl)cc2)CC1", "hERG current change (%, negative = inhibition) at 10uM": -10.4}
{"smiles": "O=C(O)CN1C(=O)COc2ccc(S(=O)(=O)N3CCCCCC3)cc21", "hERG current change (%, negative = inhibition) at 10uM": 13.7}
{"smiles": "Cc1ccc(-n2nnnc2SCC#N)cc1", "hERG current change (%, negative = inhibition) at 10uM": -0.72}
{"smiles": "CCOc1ccccc1NC(=O)N1CCCC1C(=O)Nc1ccc(NC(C)=O)cc1", "note": "(centres unmarked)", "hERG current change (%, negative = inhibition) at 10uM": -0.805}
{"smiles": "Cc1ccc(Cn2ncc3c(N4CCCC4)ncnc32)cc1", "hERG current change (%, negative = inhibition) at 10uM": -41}
{"smiles": "O=C(O)c1cc(C2CC2)nn1-c1ccccc1", "hERG current change (%, negative = inhibition) at 10uM": 17.5}
{"smiles": "O=C(N/N=C/C=C/c1ccccc1)c1cc2c(ccc3ccccc32)o1", "hERG current change (%, negative = inhibition) at 10uM": 13.1}
{"smiles": "O=C(NC1CCC(O)CC1)c1cc(-c2ccc(Cl)cc2)nc2ccccc12", "note": "(centres unmarked)", "hERG current change (%, negative = inhibition) at 10uM": -10.1}
{"smiles": "Cc1c(C(=O)OCc2ccc(F)cc2)sc2nc3n(c(=O)c12)CCC3", "hERG current change (%, negative = inhibition) at 10uM": -2.44}
{"smiles": "CCc1ccc(CN(C)Cc2nc(Cc3ccc(OC)c(OC)c3)no2)nc1", "hERG current change (%, negative = inhibition) at 10uM": -8.33}
{"smiles": "COc1ccc(Nc2ncc(C(=O)O)c3ccccc23)cc1", "hERG current change (%, negative = inhibition) at 10uM": 23.3}
{"smiles": "COC(=O)CCC(=O)Nc1nc(-c2ccccc2)cs1", "hERG current change (%, negative = inhibition) at 10uM": 21.4}
{"smiles": "COc1ccc(S(=O)(=O)N2CCOC2CNC(=O)C(=O)NCCCn2ccnc2)cc1OC", "note": "(centres unmarked)", "hERG current change (%, negative = inhibition) at 10uM": 10.9}
{"smiles": "O=C(CCn1c(=S)[nH]c2ccccc2c1=O)Nc1ccc(F)cc1", "hERG current change (%, negative = inhibition) at 10uM": 18}
{"smiles": "C=C(C)c1cccc(C(C)(C)NC(=O)N2CCCC(C)C2)c1", "note": "(centres unmarked)", "hERG current change (%, negative = inhibition) at 10uM": 14.3}
{"smiles": "CN(CCO)CCOCCOc1cccc2ccccc12", "hERG current change (%, negative = inhibition) at 10uM": -12.5}
